In patent publication US20240199584A1, “KRAS INHIBITORS” (Bristol-Myers Squibb Company, priority 2022, published 2024):

Tests used:
[1] = molecular target: T1, KRAS G12D (Homo sapiens, UniProt P01116, G12D); experiment: KRAS G12D Nucleotide Exchange Assay (HTRF, GDP-loaded KRAS G12D, SOS, BODIPY-GDP); conditions: read-out: KRASG12D Nucleotide Exchange Assay (IC50), recombinant GDP-loaded KRAS G12D (20 nM), SOS (10 nM)
[2] = molecular target: T1, KRAS G12D; experiment: KRAS G12D RAF Disruption Assay (HTRF, GMPPNP-loaded KRAS G12D / GST-RAF1 RBD); conditions: read-out: KRASG12D RAF Disruption Assay (IC50), recombinant GMPPNP-loaded KRAS G12D (5 nM), GST-RAF1 RBD (9 nM)

| IC50 [1] | IC50 [2] | Structure (SMILES) |
| --- | --- | --- |
| 10 nM |  | C#Cc1c(F)ccc2cc(O)cc(-c3ncc4c(N5CCOCCC5C)nc(OC[C@]56CCC[C@H]5N(C)CCC6)nc4c3F)c12 (stereo partly drawn) [Example 1-93, 4-(2-{[(4aS,7aR)-1-methyl-octahydro-1H-cyclopenta [b]pyridin-4a-yl]methoxy}-8-fluoro-4-(5-methyl-1,4-oxazepan-4-yl)pyrido[4,3-d]pyrimidin-7-yl)-5-ethynyl-6-fluoronaphthalen-2-ol] |
| 20 nM |  | C#Cc1c(F)ccc2cc(O)cc(-c3ccc4c(N5CCCC(C#N)C5)nc(OC[C@@]56CCCN5C[C@H](F)C6)nc4c3F)c12 (single isomer, unassigned) [Example 2-41] |
|  | 30 nM | C#Cc1c(F)ccc2cc(O)cc(-c3nc(OC)c4c(N5CCOC6CC65)nc(OC[C@@]56CCCN5C[C@H](F)C6)nc4c3F)c12 (stereo partly drawn) [Example 9-40, 4-(4-(2-oxa-5-azabicyclo[4.1.0]heptan-5-yl)-8-fluoro-2-(((2R,7aS)-2-fluorotetrahydro-1H-pyrrolizin-7a(5H)-yl)methoxy)-5-methoxypyrido[4,3-d]pyrimidin-7-yl)-5-ethynyl-6-fluoronaphthalen-2-ol] |
| 10 nM |  | C#Cc1c(F)ccc2cc(O)cc(-c3ncc4c(N5CCOCCC5C)nc(OC[C@]56CCC[C@H]5N(C)CCC6)nc4c3F)c12 (single isomer, unassigned) [Example 1-142] |
